{"source": "the RNAGym collection of RNA variant scans (doi:10.7554/elife.90254)", "parents": {"B1": {"name": "OR4K15 (parent)", "chain": "GUUAACGGUCAUAGGCCAUGGAAACUAGGAGCACCAUUUCGCUGCCAGUGAAGAAAUGAACAAAGAAAAUCUGGGCCAGGCAGGCAUCAAAAGAAAUAGUCUUGCGCUCAACCAGAAAGUCUGUAAUCAUUUUAAGGGUA"}}, "note": "The source gives no read counts; variants with many changes may rest on few reads."}
{"variants_of": "B1", "assay": "self-cleavage, relative activity (ratio to wild type); higher = more cleavage; in vitro, sequencing; the parent is a self-cleaving ribozyme"}
{"variant": "GUUAACGGUCAUAGGCCAUGGAAACUAGGAGCACCAUUUCGCUGCCGGUGAAGAAAUGAACAAAGAGAAUCUGGGCCAGGCAGGCAUCAAAAGAAAUAGUCUUGCGCUCAACCAGAAAGUCAGUAAUCAUUUUAAGGGUA", "note": "[A47G A67G U122A]", "self-cleavage": 1.53}
{"variant": "GUUAACGGUCAUAGGCCAUGGAAACUAGGAGCACCAUUUCGCUGCCGGUGAAGAAAUGAACAAAGAGAAUCUGGGCCAGGCAGGCAUCAUAAGAAAUAGUCUUGCGCUCAACCAGAAAGUCUGUAAUCAUUUUAAGGGUA", "note": "[A47G A67G A90U]", "self-cleavage": 1.48}
{"variant": "GUUAACGGUCAUAGGCCAUGGAAACUAGGAGCACCAUUUCGCUGCCGGUGAAGAAAUGAACAAAGAAGAUCUGGGCCAGGCAGGCAUCAAAAGAAAUAGUCUUGCGCUCAACCAGAAAGUCUGUAAUCAUUCCAAGGGUA", "note": "[A47G A68G U132C U133C]", "self-cleavage": 1.11}
{"variant": "GUUAACGGUCAUAGGCCAUGGAAACUAGGAGCACCAUUUCGCUGCCGGUGAAGAAAUGAACAAGGAAAAUCUGGGCCAGGCAGGCAUCAAAAGAAAUAGUCUUGCGCUCAACCAGAAAGUCCGUAAUCACUUUAAGGGUA", "note": "[A47G A64G U122C U130C]", "self-cleavage": 1.04}
{"variant": "GUUAACGGUCAUAGGCCAUGGAAACUAGGAGCACCAUUUCGCUGCCGGUGAAGAAAUGAACAAAGAAGAUCUGGGCCAGGCAGGCAUCAAGAGAAAUAGUCUUGCGCUCAACCAGAAAGUCUGUAAUCAUUUUAAGGGUA", "note": "[A47G A68G A91G]", "self-cleavage": 0.57}
{"variant": "GUUAACGGUCAUAGGCCAUGGAAACUAGGAGCACCAUUUCGCUGCCGGUGAAGAAAUGAACAAAGUAAAUCUGGGCCAGGCAGGCAUCAAGAGAAAUAGUCUUGCGCUCAACCAGAAAGUCUGUAAUCAUUUUAAGGGUA", "note": "[A47G A66U A91G]", "self-cleavage": 0.5}
{"variant": "GUUAACGGUCAUAGGCCAUGGAAACUAGGAGCACCAUUUCGCUGCCGGUGAAGAAAUGAACAGAGAAAAUCUGGGCCAGGCAGGCAUCAAAAGAAAUAGUCUUGCGCUCAACCAGAAAGUCUGUAAUCAUUUUAAGGGAU", "note": "[A47G A63G U139A A140U]", "self-cleavage": 1.39}
{"variant": "GUUAACGGUCAUAGGCCAUGGAAACUAGGAGCACCAUUUCGCUGCCGGUGAAGAAAUGAACAAAGAAGAUCUGGGCCAGGCAAGCAUCAAAAGAAAUAGUCUUGCGCUCAACCAGAAAGUCUGUAAUCAUUUUAAGGGUA", "note": "[A47G A68G G83A]", "self-cleavage": 1.17}
{"variant": "GUUAACGGUCAUAGGCCAUGGAAACUAGGAGCACCAUUUCGCUGCCGGUGAAGAAAUGAACAAAGAAAAUCUGGGCCAGGCAGGCAUCAGAAGAAAUAGUCUUGCGCUCAACCAGAAAGUCUAUAAUCAUUUUAAGGGUA", "note": "[A47G A90G G123A]", "self-cleavage": 0.78}
{"variant": "GUUAACGGUCAUAGGCCAUGGAAACUAGGAGCACCAUUUCGCUGCCGGUGAAGAAAUGAACAAAGAAAGUCUGGGCCAGGCAGGCAUCAAAAGAAAUAGCCUUGCGCUCAACCAGAAAGUCUGUAAUCAUUUUAAGGGUA", "note": "[A47G A69G U100C]", "self-cleavage": 1.87}
{"variant": "GUUAACGGUCAUAGGCCAUGGAAACUAGGAGCACCAUUUCGCUGCCGGUGAAGAAAUGAACAAAGAGAAUCUGGGCCAGGCAGGCAUCAAAAGAAAUAGUCUUGCGCUCAACCAGAAAGUCUGUAAUCAUUAUAAGGGUA", "note": "[A47G A67G U132A]", "self-cleavage": 1.19}
{"variant": "GUUAACGGUCAUAGGCCAUGGAAACUAGGAGCACCAUUUCGCUGCCGGUGAAGAAAUGAACAAAGAAAAUCUGGGCCUGGCAGGCAUCAAAGGAAAUAGUCUUGCGCUCAACCAGAAAGUCUGUAAUCAUUUUAAGGGUA", "note": "[A47G A78U A92G]", "self-cleavage": 0.28}
{"variant": "GUUAACGGUCAUAGGCCAUGGAAACUAGGAGCACCAUUUCGCUGCCGGUGAAGAAAUGAACAAUGAAAAUCUGGGCCAGGCAGGCAUCAGAAGAAAUAGUCUUGCGCUCAACCAGAAAGUCUGUAAUCAUUUUAAGGGUA", "note": "[A47G A64U A90G]", "self-cleavage": 0.2}
{"variant": "GUUAACGGUCAUAGGCCAUGGAAACUAGGAGCACCAUUUCGCUGCCGGUGAAGAAAUGAACAAAGAGAAUCUGGACCAGGCAGGCAUCAAAAGAAAUAGUCUUGCGCUCAACCAGAAAGUCUGUAAUCAUUUUAAGGGUA", "note": "[A47G A67G G75A]", "self-cleavage": 0.08}
{"variant": "GUUAACGGUCAUAGGCCAUGGAAACUAGGAGCACCAUUUCGCUGCCGGUGAAGAAAUGAACAAAGAAAAUCUGGGCCAGGCAGGCAUCAAAGGAAAUAGUCUUGCGCUCAACCGGAAAGUCUGUAAUCAUUUUAAGGGUA", "note": "[A47G A92G A114G]", "self-cleavage": 0.11}
{"variant": "GUUAACGGUCAUAGGCCAUGGAAACUAGGAGCACCAUUUCGCUGCCGGUGAAGAAAUGAACAAAGAAAAUCUGGGCCAGGCAGGCAUCAGAAGAAAUAGUCCUGUGCUCAACCAGAAAGUCUGUAAUCAUUUUAAGGGUA", "note": "[A47G A90G U102C C105U]", "self-cleavage": 0.6}
{"variant": "GUUAACGGUCAUAGGCCAUGGAAACUAGGAGCACCAUUUCGCUGCCGGUGAAGAAAUGAACAAAGAAAAUCUGGGCCAGGCAGGCAUCUAAAGAAAUAGCCUUGCGCUCAGCCAGAAAGUCUGUAAUCAUUUUAAGGGUA", "note": "[A47G A89U U100C A111G]", "self-cleavage": 0.02}
{"variant": "GUUAACGGUCAUAGGCCAUGGAAACUAGGAGCACCAUUUCGCUGCCGGUGAAGAAAUGAACAAGGUAGAUCUGGGCCAGGCAGGCAUCAAAAGAAAUAGUCUUGCGCUCAACCAGAAAGUCUGUAAUCAUCUUAAGGGUA", "note": "[A47G A64G A66U A68G U131C]", "self-cleavage": 0.12}
{"variant": "GUUAACGGUCAUAGGCCAUGGAAACUAGGAGCACCAUUUCGCUGCCGGUGAAGAAAUGAACAAAGAAAAUCUGGGCCAGGCUGGCUUCAAAAGAAAUAGUCUUGCGCUCAACCAGAAAGUCUGUAAUCAUUUUAAGGGUA", "note": "[A47G A82U A86U]", "self-cleavage": 0.27}
{"variant": "GUUAACGGUCAUAGGCCAUGGAAACUAGGAGCACCAUUUCGCUGCCGGUGAAGAAAUGAACAAGGAAAAUCUGGGCCAGGCGGGCAUCAAAAGAAAUAGUCUUGCGCUCAACCAGAAAGUCUGUAAUCAUUUUAAGGGUA", "note": "[A47G A64G A82G]", "self-cleavage": 0.67}
{"variant": "GUUAACGGUCAUAGGCCAUGGAAACUAGGAGCACCAUUUCGCUGCCGGUGAAGAAAUGAACAUAGAAAAUCUGGGCCAGGCAGGCAUCAAAAGAAAUAGUCUUGCGCUCAGCCAGAAAGUCUGUAAUCAUUUUAAGGGUA", "note": "[A47G A63U A111G]", "self-cleavage": 0.01}
